Laboratory results: the GPR68 mutational scans of Howard et al. (2025)

B1: GPR68, Q15743 (parent)
chain: MGNITADNSSMSCTIDHTIHQTLAPVVYVTVLVVGFPANCLSLYFGYLQIKARNELGVYLCNLTVADLFYICSLPFWLQYVLQHDNWSHGDLSCQVCGILLYENIYISVGFLCCISVDRYLAVAHPFRFHQFRTLKAAVGVSVVIWAKELLTSIYFLMHEEVIEDENQHRVCFEHYPIQAWQRAINYYRFLVGFLFPICLLLASYQGILRAVRRSHGTQKSRKDQIQRLVLSTVVIFLACFLPYHVLLLVRSVWEASCDFAKGVFNAYHFSLLLTSFNCVADPVLYCFVSETTHRDLARLRGACLAFLTCSRTGRAREAYPLGAPEASGKSGAQGEEPELLTKLHPAFQTPNSPGSGGFPTGRLA

Key:
[1] = variants of: B1; assay: cAMP reporter score (Enrich2 score, wild type = 0); higher = more signal; HEK293T, FACS bins
[2] = variants of: B1; assay: surface expression score (Enrich2 score, wild type = 0); higher = more signal; HEK293T, FACS bins

Variant | cAMP reporter score ([1]; pH 5.5) | cAMP reporter score ([1]; pH 6) | cAMP reporter score ([1]; pH 6, modulator: ogerin) | cAMP reporter score ([1]; pH 6.5, modulator: ogerin) | surface expression score [2]
G323Y | 0.544 | -0.308 | 0.388 | -0.121 | 0.243
G323_A324insGS | 0.299 | -0.559 | -0.496 | 0.295 | 0.058
G323_A324insGSG | 0.448 | -0.447 | 0.272 | 0.29 | -0.006
A324_P325insG | -0.034 | 1.38 | 0.703 | 1.63 | -1.03
A324_P325insGS | 0.502 | 0.766 | 0.841 | 0.754 | 0.452
A324_P325insGSG | 0.52 | 1.02 | 1.25 | 1.26 | 0.646
A324del | -0.295 | -1.18 | -0.019 | -0.261 | -0.477
P325A | 0.974 | 0.236 | 1.21 | 0.056 | 0.431
P325C | 0.427 | 0.134 | 0.475 | -0.212 | -0.184
P325D | 0.841 | -0.355 | 0.174 | 0.186 | 0.678
P325E | 0.265 |  | 0.303 | 0.928 | 0.067
P325F | 0.29 | 0.216 | 0.267 | -0.02 | 0.106
P325G | 0.483 |  | 0.462 | 0.636 | -0.237
P325H | -0.821 | 0.676 | -1.12 |  | -0.632
P325I | 0.499 | 0.653 | 0.683 | 0.518 | 1.53
P325K | 0.99 | 0.65 | 1.21 | 0.758 | 0.433
P325L | 0.585 |  | 0.902 | 0.669 | 0.901
P325M | 1.37 |  | 0.9 | 0.825 | 1.45
P325N | -0.395 | -0.312 | 0.818 |  | 2.81
P325Q | 0.277 | -0.045 | -0.026 | -0.145 | 0.309
P325R | 0.908 | 1.51 | 1.54 | 0.349 | -0.356

Variant | cAMP reporter score ([1]; pH 5.5) | cAMP reporter score ([1]; pH 6) | cAMP reporter score ([1]; pH 6, modulator: ogerin) | cAMP reporter score ([1]; pH 6.5, modulator: ogerin) | surface expression score [2]
P325S | -0.378 | -1.54 | -0.498 | -1.02 | -0.474
P325T | 0.167 | 0.03 | 1.23 | 0.465 | 0.469
P325V | 0.367 |  | 0.598 | 0.678 | 0.826
P325W | 1.23 | 0.056 | 0.805 | 0.129 | -0.05
P325Y | 2.02 | 2.26 | 1.09 |  | 0.126
P325_E326insGS | 0.652 | 0.798 | 0.484 | 0.632 | 0.603
E326_A327del | 1.62 | 0.012 | 1.21 | 1.32 | 1.36
E326_A327insG | 0.154 | -0.38 | 0.316 | -0.107 | 0.972
A327C | -0.346 | 1.15 | -0.602 | 1.65 | -0.23
A327D | 0.19 | 0.246 | -0.068 | -0.619 | -0.101
A327E | 1.2 | 1.53 | 1.06 | 2.06 | 1.52
A327F | 0.689 | -0.152 | 0.979 | 0.366 | -0.041
A327G | 0.308 | -0.283 | -0.001 | 0.234 | 0.639
A327H | 0.858 | -1.45 | 0 | -0.413 | 0.685
A327I | 0.662 | 0.355 | 0.33 | 0.049 | 0.266
A327K | 0.241 | 0.5 | 0.835 | 0.646 | -0.391
A327L | -0.031 |  | -0.082 | -0.904 | -0.071
A327M | 1.45 | 0.176 | 0.734 | 0.821 | 0.61
A327P | 0.427 | 0.935 | 0.071 | 0.049 | 0.967
A327Q | -0.231 | -0.569 | 0.308 | -0.042 | 0.31
A327R | 0.795 | 0.078 | 0.872 | -0.058 | 1.46

Variant | cAMP reporter score ([1]; pH 5.5) | cAMP reporter score ([1]; pH 6) | cAMP reporter score ([1]; pH 6, modulator: ogerin) | cAMP reporter score ([1]; pH 6.5, modulator: ogerin) | surface expression score [2]
A327S | -0.559 | -0.986 | -1.12 | -0.91 | -0.831
A327V | 0.381 | -0.254 | 0.407 | 0.994 | 0.538
A327W | 0.194 | 0.05 | -0.115 | 0.045 | -0.321
A327Y | 0.176 | 0.174 | 0.488 | -0.19 | -0.505
A327_G329del | 1.11 | 1.03 | 1.47 | 0.828 | 0.056
A327_S328del | 1.49 | 0.757 | 1.58 | 1.61 | 1.2
A327del | 0.442 |  | 0.867 |  | 0.725
S328_G329del | 1.28 | -0.105 | 1.16 | 0.145 | 0.145
S328del | 0.22 | 0.366 | 0.084 | 1.38 | 0.782
G329_K330insG | 0.769 | 0.337 | 0.852 | 0.302 | 0.715
G329_K330insGS | 1.59 | 1.19 | 1.16 | 1.58 | 2.15
G329_K330insGSG | 0.649 | 0.904 | 0.732 | 0.673 | 1.43
K330A | 0.649 | -0.229 | 0.47 | 1 | 0.986
K330C | -0.651 | -1.39 | -0.463 | -1.33 | -0.843
K330D | -1.4 | -0.934 | -0.793 | -1.09 | -1.11
K330E | -0.363 | -0.203 | -0.43 | -0.25 | -0.485
K330F | 0.269 | -0.327 | 0.476 | -0.349 | -0.514
K330G | 0.938 | 0.147 | 1.82 | 1.63 | 2.05
K330I | 1.73 | -0.344 | 1.45 | 1.23 | 0.954
K330L | -0.805 |  | -0.393 | -0.125 | 0.732

The least precise scores are not listed. Not listed are two conditions whose scores span a narrow range. Names with del lack the residues named; names with ins carry added residues between the positions named. For some of these results: How much ogerin was present is not stated here.
